First the molecules themselves.
B1: chr4:56291666:56291667:+_ENSG00000134851_ENST00000381334|hu_mus|FALSE|FALSE (ssRNA)
RNA: GGGAGUUCUACAGUCCGACGAUCAAAAUACAGUGUUUCCCAUUACUUUUAGUUGUAAUGUACACUAUGUACAGAAAAGAGUUGCCUAUCUUAAGCUGAAUACUGAAGAACAGCUUGUUAAAAACCAGACUCUGGACUUAUAAACAACAGAGGAUUGAGCAUCA
B2: chr5:31552970:31552971:+_ENSG00000082213_ENST00000325366|hu_hu|FALSE|FALSE (ssRNA)
RNA: GGGAGUUCUACAGUCCGACGAUCCAUGUACAAAUAAGUUAAUUAAGGGCCUGUUACUAAACCAAGAUACAACAGGAGCCUAAUGUUUUGUUUGUUUCAAGAUGGAGGAGACUCUGCUGCAUACACUUGGAGGUCUAGAUUUCCCAACAGAGGAUUGAGCAUCA
B3: chr2:42509997:42509998:+_ENSG00000143924_ENST00000318522|hu_mus|hu_hu_hu_mus_True|1_28 (ssRNA)
RNA: GGGAGUUCUACAGUCCGACGAUCUCGCUGAGUCCUCUCCUCAUAAUUAAACAGGACUACCACUGAGGCGAUAAAAUAAACUAUCUCCCCUGUGGGAAGCAGGUAUACAUUAGCUCUACAGUCCUUUCCUCGAUAACCAUAUGCCAACAGAGGAUUGAGCAUCA
B4: chr8:3604753:3604754:+_ENSMUSG00000044433_ENSMUST00000057028|mus_hu|FALSE|FALSE (ssRNA)
RNA: GGGAGUUCUACAGUCCGACGAUCGGGUGGCGUAAGCACCCUGGUCAAGGGUGCCAGCCGCAGCUCCGCUGGCCGCGUGUGUUUCGGGCUGCGGGGUGACUGGCUGGGCCCGGGCCCAGGGCUGCGCCGGGUGGCCGGGACUCGCAACAGAGGAUUGAGCAUCA
B5: chr10:70744696:70744697:+_ENSG00000165732_ENST00000354185|hu_hu|FALSE|FALSE (ssRNA)
RNA: GGGAGUUCUACAGUCCGACGAUCUUAAAUUAGAAAAUAUUUUCUUUGUAGAAAAUAGUAAAAAUUAUAACAUUUACCAAGCUAACCCAACAAGUUCAUUUAAACCAAAAAGUAGCUAAAUACAUUAUACAUUUAUAAAUACAGCAACAGAGGAUUGAGCAUCA
B6: chr5:31261203:31261204:-_ENSMUSG00000045302_ENSMUST00000088063|mus_hu|FALSE|FALSE (ssRNA)
RNA: GGGAGUUCUACAGUCCGACGAUCGAAGCACACAACUUUCUGCAGUGGAUCGGAGCUAAAGUCUGUCUGCACCGCCUGCAAAUUCUCUACCCUGAGUUCUAGCCCCUCGUGCUGGGUUUCCGCUCCACAUUUCUUCUCUGCUGGCAACAGAGGAUUGAGCAUCA
B7: chr2:47387770:47387771:-_ENSG00000143933_ENST00000272298|hu_mus|hu_hu_hu_mus_True|1_38 (ssRNA)
RNA: GGGAGUUCUACAGUCCGACGAUCAAGGUUUAAGGACAAUGACAGUAAGAUAAGGGAAGAAAACAUGGAGGAAUGAAGUCCUAAUUACUAUACAUGCAUAUUUUUUUACAGUAGGGGGGGGGAACCUUUUACAGAUAUUACAAACAACAGAGGAUUGAGCAUCA
B8: chr2:202488911:202488912:-_ENSG00000155755_ENST00000286196|hu_mus|hu_hu_hu_mus_False|98_98 (ssRNA)
RNA: GGGAGUUCUACAGUCCGACGAUCAUUGAAACAUUUUCAUAAUAUUGCAGUAGCAUUUCAGCAUUAUGUAACAAAAGCUCAAUUGUAAAUACAUGUAUCUUAUAAAAAUACACUUAAAAACACGAGUGGGGAGCGCAGGCGCCACAACAGAGGAUUGAGCAUCA
B9: 95463088_95463208_505_3pUTR_ENSMUSG00000038612_ENSMUST00000037947|mouse|control|control (ssRNA)
RNA: GGGAGUUCUACAGUCCGACGAUCGGAGGGCAGAGAGCCGUCGGCCCCGGAGCUCUUGGCCGCCUCGCUCACGCGCUCCAGGAGGGGCAGCACGGCCGGGCGCUUGCCGAUGGCCUCCGGCUCGCAGCCGUCCAGUUCCUCCUCCAACAGAGGAUUGAGCAUCA
B10: chr5:31546141:31546142:+_ENSMUSG00000029148_ENSMUST00000031034|mus_hu|FALSE|FALSE (ssRNA)
RNA: GGGAGUUCUACAGUCCGACGAUCUCUGAGCCACUGCUAAGUACUGUCUGGGACUCCCCCUCCGACAUGCUGGAAGGAACACUCAGGCCUCCCGACUCCGCGCCCCGCAGCCUGCGCUUCAGCUCCAGCUCGGGUUCCGGGGCCCAACAGAGGAUUGAGCAUCA
B11: chr9:106387587:106387588:+_ENSMUSG00000041506_ENSMUST00000047721|mus_hu|FALSE|FALSE (ssRNA)
RNA: GGGAGUUCUACAGUCCGACGAUCGCGGAGUGGGAUGAUGCAGACAGAAUUCCGAGCCUCUUUGAUUCUCCACCAUCGGCCAAGCCUGUGCUCCUGCCCUACCCCAGCCACCAGGAAGUCCCCAGAGCUGGAGAACUUGAGGCUCAACAGAGGAUUGAGCAUCA
B12: chr14:59828787:59828788:+_ENSMUSG00000035469_ENSMUST00000043227|mus_mus|FALSE|FALSE (ssRNA)
RNA: GGGAGUUCUACAGUCCGACGAUCGAGUGAAGAUUGGCCACUUUCCUACAUCCACCAUGACUGUGGCUUUGGACAAUUCCUAUAAAUAAGCUGACAUCUCUGCUGCGUGCUCCGGGUUCCUCCCCCGCAGGGCGGACAGCGCAGCAACAGAGGAUUGAGCAUCA
B13: 128907928_128914798_1089_3pUTR_ENSMUSG00000027394_ENSMUST00000035812|mouse|control|control (ssRNA)
RNA: GGGAGUUCUACAGUCCGACGAUCAGGAGCUGGAAGCUCUGGUAAGGGAGGUGUUUGGUGCUGAUGGCGGGCUCCACACUCAUGAGGCAGCUCCUUAUUAUGUGUUUGAUUUGCAGCAAAAUGCUACUUUCUAAGGUGAUGUUCCAACAGAGGAUUGAGCAUCA
B14: 32628618_32630215_2165_3pUTR_ENSMUSG00000022797_ENSMUST00000023486|mouse|control|control (ssRNA)
RNA: GGGAGUUCUACAGUCCGACGAUCUGGAGAUACAUAGGGCGACAGGAAGUGAUACUCCACUUUCAUAAUACGAUCAUUGAUUUCCCUCAUGACAAAUCUGUUUGUUUUCUCAGCAUUAUGAAAAUCAGUUGUUAGUCUAGAAGUCAACAGAGGAUUGAGCAUCA

This is one part of the list.

For this assay, the target named is T1, UNK ZnF1-3 (human, UniProt Q9C0B0 31-174).
T1 sequence: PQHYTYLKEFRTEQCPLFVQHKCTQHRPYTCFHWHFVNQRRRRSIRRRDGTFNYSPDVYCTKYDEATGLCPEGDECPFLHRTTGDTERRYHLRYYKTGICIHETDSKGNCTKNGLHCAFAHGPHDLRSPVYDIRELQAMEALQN
Put plainly: nsRBNS (natural sequence RNA bind-n-seq); RBNS binding buffer (assumed for nsRBNS): 25 mM Tris pH 7.5, 150 mM KCl, 3 mM MgCl2, 0.01% Triton X-100, 500 ug/ml BSA, 20 U/ml SUPERase-In, 4 C; UNK is unkempt and MSI1 is Musashi-1; names of the RNAs are library labels; protein concentration not given here; high values mean tight binding.
In the case of B1, the binding signal was determined as 0.627 enrichment R. With B2, the binding signal came to 1.38 enrichment R. For B3 the value was 0.942 enrichment R.

Consider B4, for which the binding signal was found to be 0.327 enrichment R. Consider B5, for which the binding signal was 2.29 enrichment R. B6 showed a binding signal of 1.32 enrichment R.

Regarding B7, the binding signal is 2.41 enrichment R.

B8 gave a binding signal of 0.573 enrichment R. For B9, the binding signal is 0.61 enrichment R.

For B10, the binding signal is 0.783 enrichment R. B11 came in with a binding signal of 1.18 enrichment R.

B12 gave a binding signal of 1.57 enrichment R. As for B13, the binding signal was 0.854 enrichment R. Molecule B14 gave a binding signal of 0.618 enrichment R.

The record behind these values is PMC12136788.
